Experimental data as given in the supplement of paper PMC4604168 (melanoma cell lines).
The other results are listed elsewhere or left out. Many values rest on one well or one pass, so single values are uncertain.

How the values were obtained:
Experiment in all cases: cell count relative to DMSO control; melanoma cells; higher = more viable cells
Conditions in all cases: library dose: standard library concentration; 72 h
A101D = system: A101D
A2058 = system: A2058
A375 = system: A375
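Also: cells treated in 1,536-well plates, then fixed and DAPI-stained, with nuclei counted from automated high-throughput microscope images.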

SMILES | cell count (A101D) [%] | cell count (A2058) [%] | cell count (A375) [%]
Cc1cc(Nc2cc(N3CCN(C)CC3)nc(/C=C/c3ccccc3)n2)n[nH]1 + C[C@@H]1CCN(C(=O)CC#N)C[C@@H]1N(C)c1ncnc2[nH]ccc12 [CP690550] (first compound 0.2 µM, partner dose 5 µM) | 84.8 | 86.8 | 76.2
CC(C)C[C@H](NC(=O)[C@H](Cc1ccccc1)NC(=O)c1cnccn1)B(O)O [Bortezomib] + C=CCn1c(=O)c2cnc(Nc3ccc(N4CCN(C)CC4)cc3)nc2n1-c1cccc(C(C)(C)O)n1 [MK1775] (first compound 0.005 µM, partner dose 0.1 µM) | 25 | 15.1 | 75.3
COc1ccc(C2=N[C@@H](c3ccc(Cl)cc3)[C@@H](c3ccc(Cl)cc3)N2C(=O)N2CCNC(=O)C2)c(OC(C)C)c1 [Nutlin-3] + NC1(c2ccc(-c3nc4ccn5c(=O)[nH]nc5c4cc3-c3ccccc3)cc2)CCC1 [MK2206] (first compound 0.5 µM, partner dose 2 µM) | 71.4 | 79.8 | 83
Cc1cc(Nc2cc(N3CCN(C)CC3)nc(/C=C/c3ccccc3)n2)n[nH]1 + Cc1nc(Nc2ncc(C(=O)Nc3c(C)cccc3Cl)s2)cc(N2CCN(CCO)CC2)n1 [dasatanib] (first compound 0.2 µM, partner dose 0.02 µM) | 67.6 | 78.7 | 64.3
Cc1cc(Nc2cc(N3CCN(C)CC3)nc(/C=C/c3ccccc3)n2)n[nH]1 + OCCn1cc(-c2cnc3nnn(Cc4ccc5ncccc5c4)c3n2)cn1 [PF04217903] (first compound 0.2 µM, partner dose 5 µM) | 83 | 85.4 | 78.9
Cc1cn(-c2cc(NC(=O)c3ccc(C)c(Nc4nccc(-c5cccnc5)n4)c3)cc(C(F)(F)F)c2)cn1 [nilotinib] + COc1cc(Nc2ncc(F)c(Nc3ccc4c(n3)NC(=O)C(C)(C)O4)n2)cc(OC)c1OC [Tamatinib] (first compound 1 µM, partner dose 2 µM) | 68.9 | 117 | 122
COc1ccc(C2=N[C@@H](c3ccc(Cl)cc3)[C@@H](c3ccc(Cl)cc3)N2C(=O)N2CCNC(=O)C2)c(OC(C)C)c1 [Nutlin-3] + NCC(=O)Nc1ccc(-n2nc(C(F)(F)F)cc2-c2ccc3c(ccc4ccccc43)c2)cc1 [OSU03012] (first compound 0.5 µM, partner dose 5 µM) | 72.3 | 84.4 | 60.2
Cn1c(=O)n(-c2ccc(C(C)(C)C#N)cc2)c2c3cc(-c4cnc5ccccc5c4)ccc3ncc21 + CNC(=O)c1cc(Oc2ccc(NC(=O)Nc3ccc(Cl)c(C(F)(F)F)c3)cc2)ccn1 [sorafenib] (first compound 0.02 µM, partner dose 2 µM) | 83 | 64.6 | 84.7
COc1ccc(C2=N[C@@H](c3ccc(Cl)cc3)[C@@H](c3ccc(Cl)cc3)N2C(=O)N2CCNC(=O)C2)c(OC(C)C)c1 [Nutlin-3] + CN(NC(=O)CC(=O)NN(C)C(=S)c1ccccc1)C(=S)c1ccccc1 [STA4783] (first compound 0.5 µM, partner dose 0.03 µM) | 55.6 | 15.1 | 95
Cn1c(=O)n(-c2ccc(C(C)(C)C#N)cc2)c2c3cc(-c4cnc5ccccc5c4)ccc3ncc21 + CO[C@@H]1[C@H](N(C)C(=O)c2ccccc2)C[C@H]2O[C@]1(C)n1c3ccccc3c3c4c(c5c6ccccc6n2c5c31)C(=O)NC4 [Midostaurin] (first compound 0.02 µM, partner dose 0.4 µM) | 62.5 | 49.1 | 60.9
CC(C)C[C@H](NC(=O)[C@H](Cc1ccccc1)NC(=O)c1cnccn1)B(O)O [Bortezomib] + O=C(CCCCCCC(=O)Nc1ccccc1)NO [vorinostat] (first compound 0.005 µM, partner dose 0.4 µM) | 9.6 | 19.4 | 77.9
COc1ccc(C2=N[C@@H](c3ccc(Cl)cc3)[C@@H](c3ccc(Cl)cc3)N2C(=O)N2CCNC(=O)C2)c(OC(C)C)c1 [Nutlin-3] + CNC(=O)c1cc(Oc2ccc(NC(=O)Nc3ccc(Cl)c(C(F)(F)F)c3)cc2)ccn1 [sorafenib] (first compound 0.5 µM, partner dose 2 µM) | 75.7 | 128 | 102
Cc1cn(-c2cc(NC(=O)c3ccc(C)c(Nc4nccc(-c5cccnc5)n4)c3)cc(C(F)(F)F)c2)cn1 [nilotinib] + CN1CCN(c2ccc3nc(-c4c(N)c5c(F)cccc5[nH]c4=O)[nH]c3c2)CC1 [Dovitinib] (first compound 1 µM, partner dose 0.5 µM) | 68.1 | 55.3 | 92.3
COc1ccc(C2=N[C@@H](c3ccc(Cl)cc3)[C@@H](c3ccc(Cl)cc3)N2C(=O)N2CCNC(=O)C2)c(OC(C)C)c1 [Nutlin-3] + O=C(CCCCCCC(=O)Nc1ccccc1)NO [vorinostat] (first compound 0.5 µM, partner dose 0.4 µM) | 57.9 | 91.9 | 85.2
COc1ccc(C2=N[C@@H](c3ccc(Cl)cc3)[C@@H](c3ccc(Cl)cc3)N2C(=O)N2CCNC(=O)C2)c(OC(C)C)c1 [Nutlin-3] + Nc1ncn([C@H]2C[C@H](O)[C@@H](CO)O2)c(=O)n1 [decitabine] (first compound 0.5 µM, partner dose 0.5 µM) | 77.2 | 77.1 | 70.8
Cc1cn(-c2cc(NC(=O)c3ccc(C)c(Nc4nccc(-c5cccnc5)n4)c3)cc(C(F)(F)F)c2)cn1 [nilotinib] + CC(C)(C)c1cnc(CSc2cnc(NC(=O)C3CCNCC3)s2)o1 [SNS-032] (first compound 1 µM, partner dose 0.05 µM) | 78.3 | 109 | 138
COc1ccc(C2=N[C@@H](c3ccc(Cl)cc3)[C@@H](c3ccc(Cl)cc3)N2C(=O)N2CCNC(=O)C2)c(OC(C)C)c1 [Nutlin-3] + CS(=O)(=O)CCNCc1ccc(-c2ccc3ncnc(Nc4ccc(OCc5cccc(F)c5)c(Cl)c4)c3c2)o1 [lapatinib] (first compound 0.5 µM, partner dose 4 µM) | 79 | 110 | 121
Cc1cc(Nc2cc(N3CCN(C)CC3)nc(/C=C/c3ccccc3)n2)n[nH]1 + Cn1cncc1[C@@](N)(c1ccc(Cl)cc1)c1ccc2c(c1)c(-c1cccc(Cl)c1)cc(=O)n2C [tipifarnib] (first compound 0.2 µM, partner dose 0.05 µM) | 69.2 | 80.1 | 74.6
Cc1cn(-c2cc(NC(=O)c3ccc(C)c(Nc4nccc(-c5cccnc5)n4)c3)cc(C(F)(F)F)c2)cn1 [nilotinib] + Cn1cncc1[C@@](N)(c1ccc(Cl)cc1)c1ccc2c(c1)c(-c1cccc(Cl)c1)cc(=O)n2C [tipifarnib] (first compound 1 µM, partner dose 0.05 µM) | 86.4 | 90.8 | 116
CC(C)C[C@H](NC(=O)[C@H](Cc1ccccc1)NC(=O)c1cnccn1)B(O)O [Bortezomib] + OCc1c[nH]c2ccccc12 [Indole-3-carbinol] (first compound 0.005 µM, partner dose 4 µM) | 11.9 | 10.3 | 70.3
CC(C)C[C@H](NC(=O)[C@H](Cc1ccccc1)NC(=O)c1cnccn1)B(O)O [Bortezomib] + Cn1nnc2c(C(N)=O)ncn2c1=O [temozolomide] (first compound 0.005 µM, partner dose 10 µM) | 8.38 | 14.9 | 81.5
Cc1cn(-c2cc(NC(=O)c3ccc(C)c(Nc4nccc(-c5cccnc5)n4)c3)cc(C(F)(F)F)c2)cn1 [nilotinib] + COCC[n+]1c2c(n(Cc3cnccn3)c1C)C(=O)c1ccccc1C2=O [YM155] (first compound 1 µM, partner dose 0.002 µM) | 59.4 | 22.8 | 56
Cn1c(=O)n(-c2ccc(C(C)(C)C#N)cc2)c2c3cc(-c4cnc5ccccc5c4)ccc3ncc21 + C[C@]1(c2nc3c(C(N)=O)cccc3[nH]2)CCCN1 [Veliparib] (first compound 0.02 µM, partner dose 7 µM) | 67.2 | 58.6 | 76.7
COc1ccc(C2=N[C@@H](c3ccc(Cl)cc3)[C@@H](c3ccc(Cl)cc3)N2C(=O)N2CCNC(=O)C2)c(OC(C)C)c1 [Nutlin-3] + COc1cc2c(Oc3ccc4[nH]c(C)cc4c3F)ncnc2cc1OCCCN1CCCC1 [cediranib] (first compound 0.5 µM, partner dose 2 µM) | 68.6 | 102 | 90.6
COc1ccc(C2=N[C@@H](c3ccc(Cl)cc3)[C@@H](c3ccc(Cl)cc3)N2C(=O)N2CCNC(=O)C2)c(OC(C)C)c1 [Nutlin-3] + C=C(c1ccc(C(=O)O)cc1)c1cc2c(cc1C)C(C)(C)CCC2(C)C [Bexarotene] (first compound 0.5 µM, partner dose 10 µM) | 71.1 | 101 | 109
Cc1cn(-c2cc(NC(=O)c3ccc(C)c(Nc4nccc(-c5cccnc5)n4)c3)cc(C(F)(F)F)c2)cn1 [nilotinib] + CO[C@H]1C[C@@H]2CC[C@@H](C)[C@@](O)(O2)C(=O)C(=O)N2CCCC[C@H]2C(=O)O[C@H]([C@H](C)C[C@@H]2CC[C@@H](OCCO)[C@H](OC)C2)CC(=O)[C@H](C)/C=C(\C)[C@@H](O)[C@@H](OC)C(=O)[C@H](C)C[C@H](C)/C=C/C=C/C=C/1C [everolimus] (first compound 1 µM, partner dose 0.1 µM) | 64.1 | 57.5 | 101
